{
  "source": "PubChem BioAssay AID588501",
  "about": "(NMMLSC, 2011)",
  "note": "The whole screen tested about 360,000 compounds, of which about 420 (0.12%) were called active. Inconclusive means that the source gave no clear call. Such entries were picked first, then a sample of the others. Rule as the data show it: active = inhibition above about 30%; inconclusive = no clear call, values can overlap the other calls; inactive = below that.",
  "data": [
    {"biological_target": "Lethal factor (Bacillus anthracis) (UniProt P15917)", "sequence (P15917 whole entry, looked up)": "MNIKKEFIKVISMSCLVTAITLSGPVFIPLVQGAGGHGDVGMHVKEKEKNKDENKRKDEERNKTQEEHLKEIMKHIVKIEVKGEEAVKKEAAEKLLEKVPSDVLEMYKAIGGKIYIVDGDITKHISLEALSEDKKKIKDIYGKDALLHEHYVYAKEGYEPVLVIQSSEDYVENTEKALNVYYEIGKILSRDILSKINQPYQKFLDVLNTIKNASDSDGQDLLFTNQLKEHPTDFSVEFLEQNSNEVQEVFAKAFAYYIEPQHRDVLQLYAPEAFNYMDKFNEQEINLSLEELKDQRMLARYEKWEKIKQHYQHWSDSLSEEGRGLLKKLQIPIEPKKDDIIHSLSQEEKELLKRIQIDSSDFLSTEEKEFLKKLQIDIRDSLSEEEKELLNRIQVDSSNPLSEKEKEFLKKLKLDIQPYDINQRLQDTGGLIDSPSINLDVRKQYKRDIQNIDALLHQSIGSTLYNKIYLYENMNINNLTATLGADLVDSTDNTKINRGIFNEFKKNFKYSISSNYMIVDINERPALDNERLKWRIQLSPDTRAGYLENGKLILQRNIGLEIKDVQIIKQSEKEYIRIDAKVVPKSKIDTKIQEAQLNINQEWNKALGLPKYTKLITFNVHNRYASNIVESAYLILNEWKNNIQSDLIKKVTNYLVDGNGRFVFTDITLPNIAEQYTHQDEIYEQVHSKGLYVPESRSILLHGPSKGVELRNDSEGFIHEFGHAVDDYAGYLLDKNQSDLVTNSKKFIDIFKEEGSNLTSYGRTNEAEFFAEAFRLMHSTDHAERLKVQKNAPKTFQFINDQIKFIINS", "test": "anthrax lethal factor cleavage blockers – biochemical, multiplex microsphere, MLPCN library, primary screen (AID 588501); also: plate controls were buffer without enzyme for full effect and enzyme alone for no effect", "conditions": "multiplex microsphere protease cleavage assay, LF; at 10 µM; hits give high values", "values": [
      {"smiles": "NC1=NC2=C(CCCC2)C2(CCCCC2)S1", "inhibition": "inconclusive: -6.8%"},
      {"smiles": "CCN(C(=O)COC(=O)Cn1c(=O)oc2ccccc21)c1c(N)n(Cc2ccccc2)c(=O)[nH]c1=O", "inhibition": "inconclusive: 0.4%"},
      {"smiles": "CCCCNc1c2c3c(cccc3n(C)c1=O)C(=O)c1ccccc1-2", "inhibition": "active: 55.6%"},
      {"smiles": "CC(C)Oc1ccccc1C1CC(=O)Nc2cc3c(cc21)OCCO3", "note": "(stereo not drawn)", "inhibition": "inconclusive: -22.8%"},
      {"smiles": "Cc1cc(C)c(C#N)c(SCC(=O)Nc2ccccc2C(N)=O)n1", "inhibition": "inconclusive: -23.9%"},
      {"smiles": "COCCN(C(=O)COC(=O)c1cc(C)n(-c2ccccc2)c1C)c1c(N)n(Cc2ccccc2)c(=O)[nH]c1=O", "inhibition": "inconclusive: -11.1%"},
      {"smiles": "O=C(CN1C(=O)c2ccccc2S1(=O)=O)Nc1ncc([N+](=O)[O-])s1", "inhibition": "inconclusive: -16.8%"},
      {"smiles": "CN(C)c1ccc(N=Cc2nc(-c3ccccc3)oc2O)cc1", "inhibition": "inactive: -2.1%"},
      {"smiles": "Cc1ccc2c(c1)-c1cc(C)nn1C(c1ccc3c(c1)OCO3)N2", "note": "(stereo not drawn)", "inhibition": "inconclusive: 30.2%"},
      {"smiles": "CCC1(c2ccc(F)cc2)NC(=O)N(CC(=O)c2cc(C)n(C3CC3)c2C)C1=O", "note": "(stereo not drawn)", "inhibition": "inconclusive: -4%"},
      {"smiles": "CCc1noc(C)c1C(=O)Nc1nc2ccc(OC)cc2s1", "inhibition": "inconclusive: -1.1%"},
      {"smiles": "Cc1cccc(NS(=O)(=O)c2ccc(C)c(C(=O)NCCCN3CCOCC3)c2)c1", "inhibition": "inconclusive: -2.9%"},
      {"smiles": "Cc1cc(Cl)ccc1NC(=O)Nc1c(C)n(-c2ccccc2)c(=O)n1C", "inhibition": "inactive: 0.2%"},
      {"smiles": "CCOC(=O)C1=C(COC(=O)CCNS(=O)(=O)c2ccc(NC(C)=O)cc2)NC(=O)NC1C", "note": "(stereo not drawn)", "inhibition": "inconclusive: 3.2%"},
      {"smiles": "CC(C)CC(NC(=O)c1ccc(Cl)cc1)C(=O)O", "note": "(stereo not drawn)", "inhibition": "inconclusive: -5.4%"},
      {"smiles": "S=c1nccc(-c2ccc(Cl)cc2)[nH]1", "inhibition": "inconclusive: -10.9%"},
      {"smiles": "CCc1ccc2nc3nc(C)cc(C)c3c(N)c2c1", "inhibition": "inactive: -19.5%"},
      {"smiles": "CCOC(=O)N1CCN(C(=O)c2cccc(S(=O)(=O)Nc3ccc(F)cc3)c2)CC1", "inhibition": "inconclusive: -3.2%"},
      {"smiles": "CS(=O)(=O)N1Cc2ccccc2CC1C(=O)OCC(=O)Nc1ccc2ccccc2c1", "note": "(stereo not drawn)", "inhibition": "inconclusive: -7.4%"},
      {"smiles": "Cc1ccc(S(=O)(=O)N2CCCCC2)cc1C(=O)N(C)CC(=O)Nc1cccc(F)c1", "inhibition": "inconclusive: -5.8%"},
      {"smiles": "CCCN(CCC)S(=O)(=O)c1ccc(C(=O)OCCN2C(=O)c3cccc4c(N5CCOCC5)ccc(c34)C2=O)cc1", "inhibition": "active: 37.3%"},
      {"smiles": "COc1ccc2nc(/C=N/NC(=O)CCNC(=O)OC(C)(C)C)ccc2c1", "inhibition": "inactive: -20.8%"},
      {"smiles": "Cc1ccc(C(=O)COC(=O)c2cc(Cl)nc3ccccc23)cc1", "inhibition": "inconclusive: -26%"},
      {"smiles": "Clc1cccc(Cl)c1-c1noc(CN2CCOCC2)n1", "inhibition": "active: 36.1%"},
      {"smiles": "CCCN1CCN(C(=O)C2CCN(c3nnc(C)c4c(C)n(-c5ccc(C)cc5)nc34)CC2)CC1", "inhibition": "inconclusive: -4.3%"},
      {"smiles": "COC(=O)C(C)Sc1nc2c(c(-c3ccc(OC)cc3)c1C#N)-c1ccccc1C2=O", "note": "(stereo not drawn)", "inhibition": "inconclusive: -7.2%"},
      {"smiles": "Cc1ccc(C)c(COc2coc(CN3CCN(C(=O)c4ccco4)CC3)cc2=O)c1", "inhibition": "inconclusive: 1%"},
      {"smiles": "O=C(C[n+]1ccc(C(=O)c2ccccc2)cc1)Nc1ccccc1OC(F)F", "inhibition": "active: 64.5%"},
      {"smiles": "CSc1ccc(C(=O)C2CCCN(Cc3cccnc3)C2)cc1", "note": "(stereo not drawn)", "inhibition": "inactive: -1.3%"},
      {"smiles": "Cc1ccc(CSCC(=O)Nc2ccc(N3CCOCC3)cc2N2CCOCC2)cc1", "inhibition": "inconclusive: -2.6%"},
      {"smiles": "CC1(C)CC(=O)C2=C(C1)N(c1cccc(Cl)c1)C(=O)NC2(C(F)(F)F)C(F)(F)F", "inhibition": "inactive: 0.2%"},
      {"smiles": "COC(=O)C1=C(C)N(Cc2ccc(OC)cc2)C(=O)C1", "inhibition": "inactive: -6.3%"},
      {"smiles": "COc1ccccc1NC(=O)CSc1nc2[nH]ncc2c(=O)[nH]1", "inhibition": "inconclusive: 4.4%"},
      {"smiles": "O=C(CCCc1ccccc1)NCCN1CCOCC1", "inhibition": "inconclusive: -23.9%"},
      {"smiles": "COc1ccc(OC)c(/C=C2\\NC(=O)NC2=O)c1", "inhibition": "active: 131%"},
      {"smiles": "CCCCCCC(=O)N=Nc1c(O)[nH]c2ccc([N+](=O)[O-])cc12", "inhibition": "inactive: 0.3%"},
      {"smiles": "COc1ccc(S(=O)(=O)N(CC(=O)NN=C2CCN(C)CC2)c2ccc(C)cc2)cc1OC", "inhibition": "inconclusive: 4.4%"},
      {"smiles": "COc1ccc(Cc2nnc(Cl)c3ccccc23)cc1OC", "inhibition": "inactive: 1.4%"},
      {"smiles": "CC(OCc1ccccc1)C(NC(=O)OC(C)(C)C)C(=O)NCC1CCCO1", "note": "(stereo not drawn)", "inhibition": "inconclusive: -24.3%"},
      {"smiles": "CCCCCCn1nc(C(=O)N(CCOC)c2c(N)n(CCCC)c(=O)[nH]c2=O)c2ccccc2c1=O", "inhibition": "inconclusive: 8.7%"},
      {"smiles": "O=c1c(/C=C(\\O)c2ccc(F)cc2)nc2ccccc2n1-c1ccccc1", "inhibition": "active: 32.1%"},
      {"smiles": "CCOC(=O)C1(C)CCCCN1C(=O)c1cccnc1", "note": "(stereo not drawn)", "inhibition": "inactive: -7.2%"},
      {"smiles": "Cc1noc(C)c1S(=O)(=O)N(C)C[C@H]1OCc2cnnn2CCCC(=O)N([C@H](C)CO)C[C@H]1C", "inhibition": "inactive: -12%"},
      {"smiles": "CCCC(=O)Nc1ccc(C(=O)NNC(=O)COc2ccc(Br)c(C)c2)cc1", "inhibition": "inactive: -1.5%"},
      {"smiles": "Cc1ccc(Nc2ncccc2C(=O)NCc2cccs2)c(C)c1", "inhibition": "inactive: -4.3%"},
      {"smiles": "COc1ccc(OCC(=O)N2CCC3(CC2)CC(=O)c2ccccc2O3)cc1", "inhibition": "inconclusive: -0.8%"},
      {"smiles": "CCc1ccc(NC(=O)CSc2n[nH]c(=O)n2C2CC2)cc1", "inhibition": "inconclusive: 7.7%"},
      {"smiles": "CC(Oc1ccccc1F)c1nnc(SCC(=O)c2c(N)n(C3CC3)c(=O)[nH]c2=O)o1", "note": "(stereo not drawn)", "inhibition": "active: 98.1%"},
      {"smiles": "Cn1c(=O)c2cc(NC(=S)NC3CCCCC3)ccc2n1-c1ccccc1", "inhibition": "inactive: -3.9%"},
      {"smiles": "COC(=O)C1=C(C)N(CC2CCCO2)C(=O)C1", "note": "(stereo not drawn)", "inhibition": "inconclusive: 2.8%"},
      {"smiles": "O=C(Nc1ccon1)c1sc2cc(Cl)ccc2c1Cl", "inhibition": "inactive: 2.7%"},
      {"smiles": "Cc1cc(=O)oc2c(CN3CCCC3)c(O)c(Cl)cc12", "inhibition": "active: 30.5%"},
      {"smiles": "CC(Oc1cccc(Cl)c1)C(=O)Nc1nc(-c2ccccn2)cs1", "note": "(stereo not drawn)", "inhibition": "inconclusive: -1.8%"},
      {"smiles": "CC(C)C(=O)N1CCN(c2ccccc2NC(=O)c2cccc3ccccc23)CC1", "inhibition": "inconclusive: -52.8%"},
      {"smiles": "CC(=O)c1ccc(NC(=O)c2ccc(-n3cnnn3)cc2)cc1", "inhibition": "inconclusive: -4.1%"},
      {"smiles": "Cc1c(C(=O)NCc2ccc(C(C)C)cc2)sc(=O)n1Cc1cccc(F)c1", "inhibition": "inactive: -3.9%"},
      {"smiles": "CCOC(=O)C1=C(CN2c3ccccc3CC2C)NC(=O)NC1c1ccccc1", "note": "(stereo not drawn)", "inhibition": "active: 43.9%"},
      {"smiles": "Cc1onc(-c2ccccc2Cl)c1C(=O)OCc1nnc(-c2ccccc2)o1", "inhibition": "inconclusive: 0.6%"},
      {"smiles": "Cc1onc(-c2c(F)cccc2Cl)c1C(O)c1ccc(F)cc1", "note": "(stereo not drawn)", "inhibition": "inconclusive: -8%"},
      {"smiles": "CC(C)(C)C(=O)Nc1cccc(S(=O)(=O)NC2=NCCC2)c1", "inhibition": "inconclusive: 0.8%"},
      {"smiles": "Cc1cc(C)n(-c2nnc3c4ccccc4n(C)c3n2)n1", "inhibition": "inconclusive: -15.2%"},
      {"smiles": "Cc1ncsc1CCC(=O)N1CCCC(Nc2ccc(C(C)C)cc2)C1", "note": "(stereo not drawn)", "inhibition": "inconclusive: 7%"},
      {"smiles": "CN(C)CCOC1c2ccccc2CSc2ccccc21", "note": "(stereo not drawn)", "inhibition": "inconclusive: -6.9%"},
      {"smiles": "CCOc1ccc(NC(=O)COc2ccc(-n3cnnn3)cc2)cc1", "inhibition": "inconclusive: -1%"},
      {"smiles": "CCCCN(CCCC)C1=Nc2ccccc2N/C1=C(/C#N)C(=O)OCC", "inhibition": "active: 40.1%"},
      {"smiles": "COc1ccc(-c2c(NC(=O)CC(C)C)n(C)c3ccccc3c2=O)cc1OC", "inhibition": "active: 33.4%"},
      {"smiles": "Cc1ccc(F)cc1C(=O)N1CCOCC1c1cc(C(=O)NCc2ccccc2)no1", "note": "(stereo not drawn)", "inhibition": "inactive: 1%"},
      {"smiles": "Cc1ccc(NC(=O)c2cc(S(=O)(=O)N(C)C)ccc2N2CCCC2)cc1S(=O)(=O)N(C)C", "inhibition": "inconclusive: 0.2%"},
      {"smiles": "Cc1ccc(NC(=O)C(C)OC(=O)Cc2c[nH]c3ccccc23)cc1", "note": "(stereo not drawn)", "inhibition": "inconclusive: 0.6%"},
      {"smiles": "Fc1cccc(Cc2c(-c3ccco3)nc3c(Cl)cc(C(F)(F)F)cn23)c1", "inhibition": "inactive: -9.3%"},
      {"smiles": "O=S(=O)(Nc1cccc(CO)c1)c1cccs1", "inhibition": "inconclusive: -2.3%"},
      {"smiles": "CC1CCCC(C)N1C(=O)/C=C/c1ccc(S(=O)(=O)N2CCOCC2)cc1", "note": "(stereo not drawn)", "inhibition": "inconclusive: -4.9%"},
      {"smiles": "CCN(CCCNC(=O)CN1C(=O)COc2ccccc21)c1ccccc1", "inhibition": "active: 34.8%"},
      {"smiles": "CC(C)NS(=O)(=O)c1ccc(NC(=O)C(C)OC(=O)CCC(=O)c2cccs2)cc1", "note": "(stereo not drawn)", "inhibition": "inconclusive: -6.4%"},
      {"smiles": "CC1(C)CC(=O)C2=C(C1)Oc1ncn(Cc3ccco3)c(=N)c1C2c1ccccc1", "note": "(stereo not drawn)", "inhibition": "inactive: -1.9%"},
      {"smiles": "CCC1CCCCN1CCCNC(=O)c1ccc2c(=O)n(CCOC)c(=O)[nH]c2c1", "note": "(stereo not drawn)", "inhibition": "inactive: -2.9%"},
      {"smiles": "Cc1nc2ccccn2c1C(=O)N/N=C/c1ccc(CNC(=O)C(=O)Nc2ccccc2)o1", "inhibition": "inactive: 0.5%"},
      {"smiles": "CCCc1cc(NCc2ccccn2)n2c(nc3ccccc32)c1C#N", "inhibition": "inactive: -0.2%"},
      {"smiles": "N#CCSc1nc2c(cc1C#N)CCCC2", "inhibition": "inconclusive: -14.4%"},
      {"smiles": "CN(CC(=O)Nc1ccccc1C(F)(F)F)C(=O)c1ccc2c(=O)n3c(nc2c1)CCC3", "inhibition": "inconclusive: 1%"},
      {"smiles": "Cc1ccc(S(=O)(=O)N2CCCC2CNC(=O)c2ccc(F)c(F)c2)cc1", "note": "(stereo not drawn)", "inhibition": "inconclusive: -1.4%"},
      {"smiles": "O=C(Nc1cccc(Cl)c1)Nc1cccc(C(=O)O)c1", "inhibition": "inconclusive: 9%"},
      {"smiles": "Cc1ccc(S(=O)(=O)N(C)C)cc1NC(=O)c1cc(S(=O)(=O)N2CCCCC2)ccc1N1CCOCC1", "inhibition": "inconclusive: 2.3%"},
      {"smiles": "COc1ccccc1NCC(=O)N1CCN(S(=O)(=O)c2ccccc2)CC1", "inhibition": "active: 32.1%"},
      {"smiles": "O=Cc1c(NCc2ccco2)nc2ccccn2c1=O", "inhibition": "inactive: 2.1%"},
      {"smiles": "N#Cc1ccccc1Sc1ccccc1C(=O)Nc1ccc(Br)cc1", "inhibition": "inconclusive: -25%"},
      {"smiles": "O=C(CSc1nccn1Cc1ccco1)Nc1cccc(F)c1", "inhibition": "inconclusive: 3.4%"},
      {"smiles": "CCC(CO)[n+]1c(C)cc(/C=C2\\Sc3ccccc3N2Cc2ccccc2)cc1C", "note": "(stereo not drawn)", "inhibition": "active: 36.3%"}
    ]}
  ]
}
